Results: PMC8042174
Substitutions are numbered along the chain they refer to. Names may count otherwise. Results are given in words; binding and its absence hold for the method and conditions named. In cells and extracts the contact can be indirect. Some binding calls cover weakened binding; strength is not graded here. Sequences can lack the tags named with a protein.

The chains behind the UniProt entries cited, without tags or fusion partners.
UniProt P43250: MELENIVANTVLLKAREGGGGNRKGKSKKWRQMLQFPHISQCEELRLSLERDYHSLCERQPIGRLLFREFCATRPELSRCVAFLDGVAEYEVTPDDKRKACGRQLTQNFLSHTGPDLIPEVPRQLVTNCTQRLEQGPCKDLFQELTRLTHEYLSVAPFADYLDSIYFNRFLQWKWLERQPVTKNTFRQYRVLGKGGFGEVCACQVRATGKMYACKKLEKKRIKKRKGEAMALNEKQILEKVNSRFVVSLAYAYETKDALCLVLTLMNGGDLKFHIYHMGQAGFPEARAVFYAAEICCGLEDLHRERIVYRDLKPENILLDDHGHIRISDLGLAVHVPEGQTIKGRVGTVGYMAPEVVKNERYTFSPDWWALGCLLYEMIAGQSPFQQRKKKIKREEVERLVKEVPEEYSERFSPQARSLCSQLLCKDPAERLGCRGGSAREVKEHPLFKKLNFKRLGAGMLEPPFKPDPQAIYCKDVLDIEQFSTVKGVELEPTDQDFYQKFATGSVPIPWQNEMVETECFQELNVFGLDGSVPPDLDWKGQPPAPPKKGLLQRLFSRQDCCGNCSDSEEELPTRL

T1: HA-NPT2A (human) (UniProt Q06495)
T1 sequence: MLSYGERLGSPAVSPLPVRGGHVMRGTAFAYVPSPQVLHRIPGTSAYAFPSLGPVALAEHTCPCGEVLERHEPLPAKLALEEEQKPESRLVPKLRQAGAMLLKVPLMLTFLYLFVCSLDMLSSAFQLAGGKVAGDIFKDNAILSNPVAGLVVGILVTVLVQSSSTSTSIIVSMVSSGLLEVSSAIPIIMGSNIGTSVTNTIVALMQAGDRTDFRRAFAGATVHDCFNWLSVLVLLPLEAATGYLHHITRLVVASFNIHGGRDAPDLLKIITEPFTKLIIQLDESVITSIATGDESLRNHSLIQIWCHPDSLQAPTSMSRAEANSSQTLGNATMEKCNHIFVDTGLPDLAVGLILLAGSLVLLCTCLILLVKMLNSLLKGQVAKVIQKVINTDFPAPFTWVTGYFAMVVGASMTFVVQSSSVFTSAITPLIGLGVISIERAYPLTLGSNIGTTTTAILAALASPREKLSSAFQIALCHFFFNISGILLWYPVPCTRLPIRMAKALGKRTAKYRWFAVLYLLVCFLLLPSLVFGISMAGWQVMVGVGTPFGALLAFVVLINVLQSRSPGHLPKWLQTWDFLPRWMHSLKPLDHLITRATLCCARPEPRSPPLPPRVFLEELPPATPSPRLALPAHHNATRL

T2: HA-GFP-NPT2A (human) (UniProt Q06495)
T2 sequence: T1 sequence

B1: FLAG-NHERF1 S162A (protein, UniProt O14745 1-358)
chain: MSADAAAGAPLPRLCCLEKGPNGYGFHLHGEKGKLGQYIRLVEPGSPAEKAGLLAGDRLVEVNGENVEKETHQQVVSRIRAALNAVRLLVVDPETDEQLQKLGVQVREELLRAQEAPGQAEPPAAAEVQGAGNENEPREADKSHPEQRELRPRLCTMKKGPAGYGFNLHSDKSKPGQFIRSVDPDSPAEASGLRAQDRIVEVNGVCMEGKQHGDVVSAIRAGGDETKLLVVDRETDEFFKKCRVIPSQEHLNGPLPVPFTNGEIQKENSREALAEAALESPRPALVRSASSDTSEELNSQDSPPKQDSTAPSSTSSSDPILDFNISLAMAKERAHQKRSSKRAPQMDWSKKNELFSNL
B2: FLAG-NHERF1 N1P2-GAGA (protein, UniProt O14745 1-358)
chain: B1 chain with A162S, Y164A, F166A
B3: FLAG-NHERF1 N1P1P2-GAGA (protein, UniProt O14745 1-358)
chain: B1 chain with Y24A, F26A, A162S, Y164A, F166A
B4: FLAG-NHERF1 S162D (protein, UniProt O14745 1-358)
chain: B1 chain with A162D

Legend:
HA-NPT2A (human) = molecular target: T1, HA-NPT2A (human); test: co-IP; 293 cells transfected with HA-NPT2A and FLAG-NHERF1 (WT, S162A, S162D)
HA-GFP-NPT2A (human) = molecular target: T2, HA-GFP-NPT2A (human); test: co-IP; OKH cells transfected with HA-GFP-NPT2A and FLAG-NHERF1 (WT, S162A, S162D)
HA-GRK6A (human) = HA-GRK6A (human) (UniProt P43250); test: co-IP; HA-GRK6A cotransfected with FLAG-NHERF1 constructs in OKH cells; lysis in 1% Nonidet P-40, 50 mM Tris, 150 mM NaCl, 5 mM EDTA; which partner was precipitated is not told

binding (HA-NPT2A (human)) | binding (HA-GFP-NPT2A (human)) | binding (HA-GRK6A (human)) | Binder
binds | binds | – | B1
– | – | binds | B2
– | – | no binding | B3
no binding | no binding | – | B4
